Hit rate of the full screen: of about 52,000 compounds, about 4,300 (8.3%) were called active. No stated cut-off is given here; in the data, active means survival mostly below about 52% (no sharp cut-off); inactive means mostly above about 56%. Some of the results follow.

The experiment has as its system DeltatarO mutant. Nature of the experiment: S. aureus survival, RN4220 and DeltatarO strains – OD600, teichoic acid synthesis inhibitors, primary screen (AID 463173). The settings on record: S. aureus RN4220 wild type/DeltatarO growth, OD600, 18 h, stronger effect = lower value, screened at 18.75 µg/mL (by protocol).
Consider `COc1ccc(-c2nc(SCC(=O)Nc3ccc4c(c3)OCO4)c(-c3ccccc3)[nH]2)cc1`, for which the survival is inactive: 75%.

As for `COc1ccccc1NC(=O)C1=C(C)Nc2nc(-c3ccco3)nn2C1c1ccccc1` (stereo unspecified), the survival is inactive: 74%.

Regarding `Cc1ccccc1NC(=O)c1c(NC(=O)c2ccncc2)sc2c1CCC(C(C)(C)C)C2` (stereo unspecified), the survival is inactive: 110%.

Turning to `Cc1ccc(NC(=O)CN(C)S(=O)(=O)c2cccc3cccnc23)cc1F`, the survival is inactive: 63%.

In the case of `COc1ccc(Cl)cc1Nc1nc2ccc(C(=O)c3ccccc3)cc2n2cnnc12`, the survival is inactive: 60%.

Regarding `CCOC(=O)Cc1ccc(NC(=O)N2CCc3c(sc4c3CCCC4)C2c2ccc(F)cc2)cc1` (stereo unspecified), the survival is inactive: 91%.

In the case of `CCn1c(=O)c2cc(C(=O)N3CCN(c4cccc(OC)c4)CC3)sc2c2ccccc21`, the survival was active: 53%.

As for `CCc1ccc(C(c2ccccc2)c2c[nH]c3ccc(C)cc23)s1` (stereo unspecified), the survival is inactive: 69%.

Take `CN(CC(=O)Nc1ccc(Cl)cc1F)S(=O)(=O)c1ccc2c(c1)n(C)c(=O)c(=O)n2C`: the survival is inactive: 115%.

In the case of `Cc1sc2ncn(CC(=O)N3CCN(c4ccccc4)CC3)c(=O)c2c1S(=O)(=O)N1CCN(c2ncccn2)CC1`, the survival is inactive: 126%.

`CCc1cccc(-n2nnc(-c3nsc(NC(=O)c4ccc(C)cc4)n3)c2C)c1`: the survival was inactive: 54%.

Regarding `Cc1ccccc1NC(=O)C(=O)NCC1(c2ccccc2)CCCC1`, the survival is inactive: 73%.

As for `CCN1CCN(c2ncc3c(n2)CCN(Cc2sccc2C)C3)CC1`, the survival was inactive: 67%.

Take `O=C(CSc1nnc2scc(-c3ccc(Cl)cc3)n12)Nc1cccc(C(F)(F)F)c1`: the survival was inactive: 58%.

With `COc1cc(NC(=O)CC(C)S(=O)(=O)c2ccc3c(c2)CCN3C(C)=O)cc(OC)c1OC` (stereo unspecified), the survival was inactive: 92%.

Turning to `CCOc1ccc(Nc2nc(C)c(NC(=O)c3ccc(C)cc3)c(Nc3ccc(OCC)cc3)n2)cc1`, the survival is inactive: 123%.

In the case of `O=C(CSc1nnc(Cc2ccccc2)n1Cc1ccccc1)N1CCCC1`, the survival was inactive: 77%.

`CCc1ccc(CNC(=O)CSc2c3c(nc4ccc(Cl)cc24)CCCC3)cc1`: the survival is inactive: 63%.

For `O=C(NCCn1cc(SCc2ccccc2F)c2ccccc21)c1cccs1`, the survival was inactive: 54%.

As to `CCS(=O)(=O)NCC(c1ccco1)N1CCN(c2ccccc2)CC1` (stereo unspecified), the survival was inactive: 97%.

`CSc1nc(Nc2ccc(C)cc2)c(C#N)c(-c2ccccc2)n1`: the survival is inactive: 104%.

For the compound `Cc1ccc2c(c1)C(c1ccccc1)N(C(=O)c1ccc(S(=O)(=O)N3CCCCC3)cc1)CC(=O)N2` (stereo unspecified), the survival was inactive: 85%.

Turning to `Fc1ccc(C(Nc2ccccc2Cl)c2nnc(-c3ccccc3Cl)o2)cc1` (stereo unspecified), the survival is inactive: 83%.

In the case of `Cc1ccc(NC(=O)[C@H]2O[C@@H]3OC(C)(C)O[C@@H]3[C@H]3OC(C)(C)O[C@H]32)cc1F`, the survival is inactive: 97%.

Take `Cc1ccc(NC(=O)c2cccc(N3CCCS3(=O)=O)c2)cc1C`: the survival is inactive: 89%.

With `CC(C(=O)Nc1ccccc1C(F)(F)F)n1nnc2sc3c(c2c1=O)CCCC3` (stereo unspecified), the survival is inactive: 81%.

Take `O=C(N/C(=C\c1ccc(F)cc1)C(=O)N1CCOCC1)c1ccccc1`: the survival was inactive: 98%.

`COc1ccccc1CNS(=O)(=O)c1cc(Br)cc2c1N(C(C)=O)C(C)C2` (stereo unspecified): the survival was inactive: 53%.

In the case of `O=C(Cc1cccs1)Nc1ccccc1`, the survival is inactive: 70%.

As to `COc1cc(Cl)c(NC(=O)c2cc(CN3CCCC3)on2)c(OC)c1`, the survival is inactive: 94%.

For the compound `CCc1ccc(CNC(=O)C2CCCN(c3nnc(C)c4c(C)n(-c5ccc(OC)cc5)nc34)C2)cc1` (stereo unspecified), the survival was inactive: 94%.

For `Cc1ccc(N2CC(c3nnc(Cc4ccc(F)cc4)o3)CC2=O)cc1` (stereo unspecified), the survival is active: 24%.

As for `O=c1c(=O)n(-c2ccccc2)ccn1Cc1cccc(C(F)(F)F)c1`, the survival is inactive: 107%.

Regarding `O=C(NCc1ccc(F)cc1)c1ccc(CS(=O)Cc2ccc(Cl)cc2)o1` (stereo unspecified), the survival is inactive: 110%.

Consider `Cc1ccc(NC(=O)c2cc3nc(-c4ccc5c(c4)OCO5)cc(C(F)(F)F)n3n2)cc1Cl`, for which the survival was inactive: 85%.

For `COC(=O)c1ccc(NS(=O)(=O)c2c(C)nc3sccn3c2=O)cc1`, the survival is active: 72%.

For the compound `COc1cccc(-n2ccnc2SCC(=O)Nc2ccc(Cl)c(Cl)c2)c1`, the survival is inactive: 125%.

As to `COc1ccc(C2CC(=O)c3cnc4c(-c5ccccc5)c(C)nn4c3C2)cc1OC` (stereo unspecified), the survival was inactive: 54%.

Take `O=C(CSc1nccn1-c1ccc(Cl)cc1)Nc1cccc2ccccc12`: the survival is inactive: 95%.

Consider `CC(CCc1ccccc1)NC(=O)Cn1c(=O)nc(-c2ccccc2F)c2cc(Cl)ccc21` (stereo unspecified), for which the survival was inactive: 75%.

On to `COc1ccc(Cn2ccnc2SCC(=O)NC2CCCC2)cc1`, for which the survival was inactive: 95%.

In the case of `Cc1oc(-c2ccccc2F)nc1CSCC(=O)NCc1ccccc1`, the survival was active: 41%.

Consider `Cc1cccc(C)c1NC(=O)CSc1ncc2c(n1)-c1ccc(Cl)cc1N(Cc1ccccc1)S2(=O)=O`, for which the survival was active: 0%.

For the compound `CC(C)c1ccc(NC(=O)C2CCCN(S(=O)(=O)c3cccc4nsnc34)C2)cc1` (stereo unspecified), the survival is inactive: 70%.

Consider `COc1ccc2c(c1)CC(C(=O)Nc1cccc(C)c1C)CO2` (stereo unspecified), for which the survival is inactive: 87%.

`O=C(COc1ccccc1Cl)OCc1cc(=O)n2nc(C3CCCCC3)sc2n1`: the survival was inactive: 94%.

On to `Cc1ccc(CNC(=O)c2ccc3c(c2)c(C)c(C)n3Cc2ccccc2)o1`, for which the survival was inactive: 86%.

`CC(C)OCCCNC(=O)c1cn(C)c2ccc(S(=O)(=O)N3CCCCCC3)cc2c1=O`: the survival was inactive: 125%.

`CCn1ccc2cc(S(=O)(=O)N3CCC(C(=O)NCCc4ccccc4Cl)CC3)ccc21`: the survival is inactive: 94%.

As for `CC1Cc2cc(S(=O)(=O)NCCc3ccc(Cl)cc3)ccc2N1C(=O)C1CCC1` (stereo unspecified), the survival was inactive: 67%.

Take `Cc1c2cnn(CC(=O)NCC(C)c3ccccc3)c(=O)c2c(C)n1Cc1cccc(Cl)c1` (stereo unspecified): the survival is inactive: 77%.

Turning to `Cc1cccc(S(=O)(=O)c2cn(Cc3ccccc3)c3cc(N4CCOCC4)c(F)cc3c2=O)c1`, the survival is inactive: 84%.

For the compound `CC(C)C(Nc1ncnc2c1oc1ccccc12)C(=O)O` (stereo unspecified), the survival was inactive: 113%.

Take `COc1ccc(CNC(=O)C(C)Sc2nc(-c3ccccc3)cc(C(F)(F)F)n2)cc1` (stereo unspecified): the survival is inactive: 165%.

For `O=C(NC1CCCC1)c1ccc(CSc2nc3ccncc3n2Cc2cccc(F)c2)cc1`, the survival is inactive: 60%.

On to `CCOc1cc(C(=O)NCc2ccc3c(c2)CCN3C(=O)c2ccc(F)cc2)cc(OCC)c1OCC`, for which the survival is inactive: 120%.

For the origin of these results see PubChem BioAssay AID463173 (ICCB-Longwood Screening Facility, Harvard Medical School, 2010).
